Data reported in the supplement of paper PMC10126150.
Sequences with one replicate were seen in a single cluster, so their values are uncertain.

Test system: ATP
Assay: switch fluorescence ratio, 500 uM ATP over buffer (Cy3 cluster intensity, sum of 5 cycles each) (fold (ratio)); higher = stronger signal-on switching upon ATP binding; sequences stand for … in TCGTCGGCAGCGTCAGATGTGTATAAGAGACAGTTTTTTTTTTTTTTTTTTTTTTTTT…TC
Conditions: aptamer strand: ATP DNA aptamer (quencher-CACCTGGGGGAGTATTGCGGAGGAAGG + anchor), 100 nM annealed; ATP concentration: 500 uM; one replicate
Outline: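 Clusters with intensities outside 100-1000 RFU were excluded. The remaining Cy3-labelled switching-strand clusters on a modified Illumina MiSeq flow-cell had been annealed to 100 nM quencher-labelled ATP aptamer and imaged in selection buffer, then after 15 min with 500 uM ATP at 22 °C, for five cycles separated by NaOH stripping and re-annealing. The fluorescence ratio, averaged per switch-domain sequence, is each cluster's summed target-cycle Cy3 intensity over its summed buffer-cycle Cy3 intensity.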
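Note: ATP exposure 15 min at 22 °C before imaging.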

Sequence	switch fluorescence ratio
GTTATTAATA	0.996
AGACAAGCTC	1.03
CCAGAAGCGA	3.04
AGAAGTAGGC	0.928
GTCGCTTCGG	1
AGAGTGCATT	1.05
CATTCAGCAT	1.7
AAATATACAC	1.11
CCGGGATCCG	1.06
TATATCATAT	1
CGTTGAATAC	2.48
CCGTTGGAAT	1.2
GTCCTTGGGT	0.983
TACTTATTTT	1.01
CACTCTATT	1.09
GATGCTCAGG	1.06
AGAAGCCAGC	1.06
GCCATATCTT	1.09
GTGCACTCGG	1.03
ACTCTGGTGC	1.11
AAGCAGCGCC	1.02
AGGTGACTGG	1.05
GATCGGTCTT	0.952
CGGTATAAAT	1.04
AGTGGACCTC	1
TCAGTTGTGT	0.985

Sequence	switch fluorescence ratio
CTTGGGCGCA	1
ATCCCAGCCA	1
GGGGGATTCA	1.01
CTGCTTGCCA	1
GAGAAACAGT	1.03
GGAGGTACGG	1.02
GGGGCGACAG	0.982
GAGTGAAATC	1.01
TGCAGACACA	1.04
TGCTTGGCGC	0.97
ATGACTAA	1.02
AGCTTGGAGG	1.04
ACCAACAAAA	1.07
GGCAGGAAAC	0.934
GTCATATCTG	0.969
ATTTCTCTGA	0.986
ACATGCGGGA	0.883
ATGAAGTCAT	1.02
CTCCTATGTA	1.06
CAGACTTTGT	1.03
AATGCCATAG	1.02
TGAAGAGGAC	0.986
ACATCGAAGT	1
GCATGGCGGA	1.01
CGTTATAGCT	1.02
CTCTTTTTTG	0.973

Sequence	switch fluorescence ratio
ATTACGAAC	1.38
TAACACAGGC	1.09
AGTCGGCGTC	1.01
CAGAACAAGG	0.994
TCGGCTACTA	1.02
GATGACACAG	0.976
TGTGAGATGT	0.991
TGGAAAGTCA	1
GATTCATGAT	0.89
TGGGTTCTTA	1.03
GTGGAACCTA	0.979
GGGAATCCC	0.998
CTTGCCAGGG	1.09
TAATATAAAT	0.998
CTTATATCTG	0.99
ACTATGATGC	1.04
TACATTTGTT	1.02
AGGGGACGCA	1.04
GGAATAATAG	1.03
GTATCGTTTG	0.989
GACCCGACCA	1.17
AGCGCCGTTG	1.02
TACGGGGCTC	1.03
TGAGAGATGC	1.21
CCAGGGTCGT	1.02
GTGGTTCGGC	0.951

Sequence	switch fluorescence ratio
CCAACTGCGG	1.01
GTTTGAGCG	1.03
CAGTTACTGT	1
ATTGCAACAA	1.08
TAGCGACTAC	3.15
GGGGCTCTC	1.03
ATCGGAGCAA	3.78
CACCCGCGCG	1.01
GGGACTTAGT	0.997
CCAAGGAATC	1.88
GACATAGTCA	1.04
AGGGGGAAGG	1.03
ACGGGTATCG	1.03
ACATCGCCTA	1.07
ATTGATTGCC	1.01
CAAGATCTGC	0.956
TCGTGTGTTT	1.01
GAGCGCTGCT	0.974
TTGCTTTCCG	1.04
TAGAAGTTAT	1.04
CTAGTCCGTA	0.939
ATTAATGG	1
ACTCATCAG	1.02
TTGTGGCGGC	0.978
AGGCACGTTA	1.06
TTAGTAGTAT	0.942

Sequence	switch fluorescence ratio
GACCATTCTC	1.03
ACGGGGAACC	1.06
AACGTCAGCG	0.964
TGTTCTTC	0.951
TGCGGATTCC	1.04
GGTGGAGCGT	0.978
TCTTAAGGTG	1.93
ACAGTGCTGA	1.06
TTTCCCCGGA	1.01
ATAATCGTGG	0.995
CTTGAAAGGA	0.994
ATGGTCCGTA	1.05
TGGCGTATTG	1.01
TGTTCCGTTT	1.02
TAAACCCGAC	1.63
GCGAGAGCGC	0.944
TATGGGTTCG	1
TAAAAGTGAC	1.08
GCTCCGTTGG	1.65
AACACGACGA	1.21
CTGATCTATA	0.974
GGGAACTACA	1.05
CATTGGCGAT	1.12
ATCTTTGCGC	1
AGTTATACAG	0.956
ATTAGTTAG	1.01

Sequence	switch fluorescence ratio
TGATGTCATA	0.968
TTTCAGACCG	1
ATCAGACCTC	1.01
ATTAGATTTA	1.01
AGCTCCTGGC	0.985
CACGTGCCTG	1.04
TACCCGGGTG	5.42
GAATTGCTTA	1.01
GAAGAGTTCC	1.02
CGAAAGCGCA	1.02
TAAGGCGCGA	0.99
GCCCCCCCCC	1.09
GTTAAATACC	1.02
CCTACGTGTG	1.13
AGAGGTCACT	0.982
CACGGACTTC	1.28
AGGACCGTGT	1.01
CAATGCATGT	1.02
ATTTTGGTAC	1.02
ACTACTGGA	0.99
AACTTATGGG	1.05
CAGCTAGCTG	0.998
CAGAGAGTAT	1.01
